The full ranking holds about 110,000 compounds; the median of “z-score” is about -0.1, and the highest 2% start at about 2. The list shows a part of the results. Activity calls are given as the source filed them.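 The calls were made as follows: active = z-score in the third read window above 3 or below -3; inactive = the rest.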
molecular target: Metabotropic glutamate receptor 8 (Rattus norvegicus) (UniProt P70579); test: rat mGluR8 modulators via GIRK flux, primary screen, cell-based, thallium flux, HTS (AID 488969); details: HEK293 rat mGluR8, GIRK (G protein-gated inwardly rectifying potassium channel) thallium flux, FluoZin2; at 10 µM; stronger effect = higher value; submaximal glutamate (EC20) added with thallium
UniProt P70579, sequence (P70579 whole entry, looked up): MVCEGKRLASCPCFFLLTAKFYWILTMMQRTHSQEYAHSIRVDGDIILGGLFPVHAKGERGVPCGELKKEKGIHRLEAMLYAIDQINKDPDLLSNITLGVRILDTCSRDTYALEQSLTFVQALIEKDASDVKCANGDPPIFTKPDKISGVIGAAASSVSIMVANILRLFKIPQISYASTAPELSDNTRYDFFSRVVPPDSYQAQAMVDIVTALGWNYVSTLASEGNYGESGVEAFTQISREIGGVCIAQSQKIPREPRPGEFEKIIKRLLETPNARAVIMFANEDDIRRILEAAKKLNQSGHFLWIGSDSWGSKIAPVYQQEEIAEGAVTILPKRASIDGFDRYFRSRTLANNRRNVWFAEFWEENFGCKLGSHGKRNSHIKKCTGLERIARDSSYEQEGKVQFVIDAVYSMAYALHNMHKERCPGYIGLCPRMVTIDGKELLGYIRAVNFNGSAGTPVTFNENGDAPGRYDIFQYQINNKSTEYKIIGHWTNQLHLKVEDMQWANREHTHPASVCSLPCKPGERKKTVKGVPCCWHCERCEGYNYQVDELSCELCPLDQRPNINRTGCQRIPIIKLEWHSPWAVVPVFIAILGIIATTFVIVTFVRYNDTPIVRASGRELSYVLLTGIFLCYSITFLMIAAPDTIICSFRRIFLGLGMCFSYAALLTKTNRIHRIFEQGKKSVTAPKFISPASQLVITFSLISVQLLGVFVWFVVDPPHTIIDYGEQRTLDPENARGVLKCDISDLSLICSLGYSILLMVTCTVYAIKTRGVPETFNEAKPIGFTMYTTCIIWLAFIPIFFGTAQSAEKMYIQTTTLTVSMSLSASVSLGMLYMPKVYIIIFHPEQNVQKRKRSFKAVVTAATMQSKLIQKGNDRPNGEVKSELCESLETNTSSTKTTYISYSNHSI

SMILES	z-score
Cc1c(Cl)cccc1NC(=O)CN1CCC(C(O)(c2ccccc2)c2ccccc2)CC1	-0.0804
O=C(Nc1cccc(-c2cn3ccsc3n2)c1)c1ccccc1	-0.241
CCOC(=O)c1c(C)[nH]c(C(=O)COC(=O)CN2C(=O)C3CCCCC3C2=O)c1C (centres undefined)	-0.264
COC(=O)c1ccccc1N(C)S(C)(=O)=O	0.996
COC(=O)/C=C(\C)NC(=O)c1ccc(F)cc1	-0.317
COc1cccc(N2CCN(C(=O)Nc3ccc4c(c3)NC(=O)CO4)CC2)c1	-0.176
COc1cc(/C=N/NC(=O)COc2ccccc2C)ccc1OC(=O)c1cccs1	0.143
COCCOC(=O)c1cc(C(=O)c2cc(F)ccc2O)coc1=N	0.0298
CCOC(=O)c1ccc(Cn2cnc3ccccc3c2=O)cc1	-0.373
CCOC(=O)c1ccc(S(=O)(=O)n2c(CN3CCCCC3)nc3ccccc32)cc1	0.0659
CCOC(=O)CCCCC(=O)c1[nH]c(=O)[nH]c1CSc1nc2ccccc2[nH]1	-0.114
O=C(OCC(=O)N1CCN(C(=O)c2ccco2)CC1)c1cn(-c2ccccc2)nc1-c1ccccc1	-0.35
O=C(NCc1ccc2c(c1)OCO2)c1cc(-c2ccc(Cl)cc2Cl)on1	-0.885
CCOC(=O)C1CCN(S(=O)(=O)C(F)(F)c2nc3ccccc3s2)CC1	-0.0185
FC(F)(F)c1cc(C(F)(F)F)c2ccc(N/N=C/c3ccccc3)nc2n1	0.736
CCN(CC)CCCNC(=S)N1CCn2c(nc3ccccc32)C1	-0.203
COc1ccc(S(=O)(=O)N2c3cc(Cl)ccc3Oc3nc4ccccc4nc32)cc1	-0.314
CC(C)(C)c1ccc(O)c(N)c1	-0.743
CC(C)(CNS(=O)(=O)c1ccc(F)cc1)CNS(=O)(=O)c1ccc(F)cc1	0.051
CCOC(=O)c1c(C)[nH]c(C)c1C(=O)CSc1nc2ccccc2n1CCOC	-0.301
COC(=O)C(NC(=O)C(C)Oc1ccccc1)C(C)C (centres undefined)	0.876
O=C(C1CC(=O)N(c2ccccc2)C1)N1CCN(C2=NS(=O)(=O)c3ccccc32)CC1 (centres undefined)	0.289
COc1ccccc1NS(=O)(=O)c1cc(NC(=O)CNC(=O)c2ccc(C)s2)ccc1Cl	-0.021

SMILES	z-score
CCOC(=O)CC1C(=O)NCCN1S(=O)(=O)c1ccc(Cl)cc1 (centres undefined)	0.124
O=c1[nH]c(CN2CCCCC2)nc2c1C1(CCCCC1)Cc1ccccc1-2	0.662
O=c1[nH]c2cc3c(cc2cc1C(c1nnnn1CC1CCCO1)N1CCCCCC1)OCO3 (centres undefined)	-0.476
COc1ccc(NC(=O)c2cc3ccccn3n2)cc1	-0.0979
COCC(=O)Nc1ccc(S(=O)(=O)NCCc2ccccc2)cc1	0.711
Cc1ccc2nc(C)c(C(=O)N/N=C/c3cccc([N+](=O)[O-])c3)cc2c1	-0.517
CC(=O)Nc1cccc(C(=O)Nc2ccccc2C(=O)O)c1	-0.0865
COc1ccc(NC(=O)C2CCCO2)cc1OC (centres undefined)	0.126
COc1ccc(/C=N/NC(=S)NC2CCS(=O)(=O)C2)cc1 (centres undefined)	-0.113
OC(COC(c1ccc(Cl)cc1)c1ccc(Cl)cc1)CN1CCCC1 (centres undefined)	-0.0693
Cc1ccc(NC(=O)c2ccc(-n3cccn3)c([N+](=O)[O-])c2)cc1	-0.356
O=C(Nc1ccc(Cl)cc1C(F)(F)F)c1ccccc1Cl	-0.22
Cc1ccc(C(=O)CNc2ccccc2C)cc1	-0.166
CN(C(=O)CSc1nc(N)c2c3c(sc2n1)CSC(C)(C)C3)c1ccccc1	-0.67
Cc1ccc(-n2nnnc2SCC(=O)Nc2ncc(Cc3ccccc3Cl)s2)cc1	-0.0274
COc1ccc2nc(NC(=O)c3ccoc3C)sc2c1	0.209
Cc1cc2c(C)nc(N/N=C/c3ccc(F)cc3)nc2o1	-0.0517
Cc1c(Cl)cccc1Nc1nc(N)nc(CSc2nc3ccccc3s2)n1	0.566
CN(C)CCN1C(=O)c2oc3ccccc3c(=O)c2C1c1cccc(Br)c1 (centres undefined)	0.553
C=CCn1cnc2scc(-c3ccc(CC)cc3)c2c1=O	-0.474
CCNC(=O)CCCOc1ccc(Cl)cc1Cl	-0.106
CCc1ccc(CNc2ccc(O)cc2)cc1	0.141
Cc1cccc(CSc2nn3c(=O)c(C)nnc3s2)c1	0.481

SMILES	z-score
CCCn1c(SCC(=O)NC(=O)NCc2ccco2)n[nH]c1=O	-0.027
O=C(CCC(=O)OCC(=O)c1cccc([N+](=O)[O-])c1)Nc1cccc(Cl)c1Cl	-0.0921
S=c1[nH]nc(CSCc2ccc(Cl)cc2Cl)n1-c1ccccc1	active: 15.5
COc1ccccc1NC(=O)C(NC(=O)OC(C)(C)C)C(C)OCc1ccccc1 (centres undefined)	-0.319
COC(=O)C(F)(F)Sc1c(C)[nH]c2ccccc12	0.171
Cc1ccc(C(=O)CSc2nc(C)cc(SCc3nnc(-c4ccccc4)o3)n2)cc1	0.0159
CCCCCC(=O)Nc1ccc2oc(-c3cncc(Br)c3)nc2c1	0.45
CN=C1SC(CC(=O)Nc2c(C)cccc2C)C(=O)N1/N=C/c1cccs1 (centres undefined)	-0.202
Cc1cc(N(C)C)cc(C)[n+]1[O-]	-0.124
O=C(Nc1ccccc1)c1ccc[n+](Cc2ccc([N+](=O)[O-])cc2)c1	0.521
COC(=O)c1cc(N2C(=O)C3C(C2=O)C2(C)C=CC3(C)O2)ccc1Cl (centres undefined)	-0.393
CCN(CC)S(=O)(=O)c1ccc2c(c1)c(=O)c(C(=O)NCCOC)cn2C	-0.267
OCCCc1nc2ccccc2n1CCc1ccccc1	-0.263
CCCCN(CC)S(=O)(=O)c1ccc(C(=O)Nc2nnc(COC)o2)cc1	-0.35
COc1cc2c(cc1OC)CN(C(=O)CSc1nc(C)cc(C)c1C#N)CC2	-1.3
Cc1cc(-c2cccnc2)c(C#N)c(SCC#N)n1	0.00995
COC(=O)c1ccc(NC(=O)CSc2nncc3ccc(OC)c(OC)c23)cc1	-0.0993
Cc1noc(NS(=O)(=O)c2ccc(NC(=O)CS(=O)(=O)c3ccccc3)cc2)c1C	0.155
Cc1onc(-c2c(F)cccc2Cl)c1C(=O)Nc1c(C)n(C)n(-c2ccccc2)c1=O	-0.4
O=[N+]([O-])c1ccc(Oc2ccc(S(=O)(=O)Nc3ccccc3)cc2)cc1	-0.248
O=C(NCc1ccccn1)c1cccc([N+](=O)[O-])c1	-0.0692
C/C=C/c1ccc(OCCOc2cc(C=O)ccc2OC)c(OC)c1	-0.21
CCOc1ccc(-n2c(SCC(=O)NCc3ccco3)nc3c([nH]c4ccccc43)c2=O)cc1	-0.288
